In all, about 33,000 sequences were measured (“E-score (-0.5 to 0.5)”: median about -0.035, highest 2% from about 0.35 on). The list shows a part of the results.

The test has as its target T1, Pdr3 (UniProt P33200).
T1 sequence: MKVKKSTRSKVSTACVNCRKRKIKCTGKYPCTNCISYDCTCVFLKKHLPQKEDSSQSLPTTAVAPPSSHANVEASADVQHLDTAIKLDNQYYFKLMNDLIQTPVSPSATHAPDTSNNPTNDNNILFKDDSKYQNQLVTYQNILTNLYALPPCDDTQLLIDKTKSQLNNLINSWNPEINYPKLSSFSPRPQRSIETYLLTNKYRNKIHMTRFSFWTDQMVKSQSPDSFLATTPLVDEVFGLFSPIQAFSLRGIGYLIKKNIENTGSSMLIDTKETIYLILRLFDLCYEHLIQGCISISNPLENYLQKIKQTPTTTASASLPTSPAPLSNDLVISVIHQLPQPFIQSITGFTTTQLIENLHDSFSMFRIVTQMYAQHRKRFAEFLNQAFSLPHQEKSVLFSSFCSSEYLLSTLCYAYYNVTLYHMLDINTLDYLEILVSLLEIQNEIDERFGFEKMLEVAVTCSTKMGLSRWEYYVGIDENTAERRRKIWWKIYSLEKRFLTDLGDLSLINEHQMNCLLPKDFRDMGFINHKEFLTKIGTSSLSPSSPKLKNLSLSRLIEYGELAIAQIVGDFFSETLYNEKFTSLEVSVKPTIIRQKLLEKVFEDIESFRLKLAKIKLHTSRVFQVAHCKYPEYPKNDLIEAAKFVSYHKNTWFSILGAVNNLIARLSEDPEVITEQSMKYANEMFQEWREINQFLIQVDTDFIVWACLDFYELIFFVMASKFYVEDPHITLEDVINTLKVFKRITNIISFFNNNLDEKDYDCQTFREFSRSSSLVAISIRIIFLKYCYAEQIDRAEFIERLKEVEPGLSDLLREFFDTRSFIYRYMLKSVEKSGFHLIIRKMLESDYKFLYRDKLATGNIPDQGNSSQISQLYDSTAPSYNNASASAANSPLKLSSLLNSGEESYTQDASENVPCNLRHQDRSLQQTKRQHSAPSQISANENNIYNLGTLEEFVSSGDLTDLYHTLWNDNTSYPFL
In words: PBM E-score (8-mer binding enrichment) (E-score (-0.5 to 0.5)); higher = stronger / more preferred TF binding; most listed sequences are background and not binding sites. To be noted: protein concentration: 200 nM; construct: GST-full length. As for the experimental part: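 Universal 'all 10-mer' protein binding microarrays (Agilent AMADID 015681) probed with GST-tagged S. cerevisiae TFs (full-length or DBD) made by in vitro transcription/translation (PURExpress), about 100-200 nM. Bound TF was detected with fluorescent anti-GST. Each ungapped 8-mer (which stands for itself and its reverse complement) is scored by the PBM enrichment score (E-score), a modified Wilcoxon-Mann-Whitney statistic from -0.5 to +0.5, computed with the Universal PBM Analysis Suite. Scale: above 0.35 generally sequence-specific binding.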
As to AAAATGCA, the “PBM E-score” value was -0.0508.

For the sequence CCTTTCCG, the “PBM E-score” value is 0.387.

As to CTTCACGC, the “PBM E-score” value was found to be 0.118.

As for CACAGTGC, the “PBM E-score” value amounted to 0.0384. With ATCCACTA the figure was -0.0247; with CTCCCGAA, 0.0611. With GACACTCC the figure was 0.106; with CCAGGAGC, -0.231; with ATCCAATG, -0.208. Take CTCATGGA: the “PBM E-score” value was -0.205. On to GGGATGTA, for which the “PBM E-score” value was 0.188. The result for AAGAGACC reads 0.0108. Regarding GTATTGAC, the “PBM E-score” value was -0.194. Consider ACGACCGA, for which the “PBM E-score” value is -0.0449. For GGGGAAAC, the “PBM E-score” value stood at 0.206. CCTTTTAA: the “PBM E-score” value was -0.0621. With CTGCGATA, the “PBM E-score” value was -0.00547.

Regarding AAGAGCCA, the “PBM E-score” value is -0.0117. On to GACACATC, for which the “PBM E-score” value is -0.0103. Regarding GATATAGC, the “PBM E-score” value came to 0.0585. With AGATACGG, the “PBM E-score” value was found to be 0.163. With TAAAGGGA the figure was -0.0834; with AAGTCCGA, 0.0505. As to GTTTCTCA, the “PBM E-score” value is -0.134. In the case of TAGAGGCA, the “PBM E-score” value was -0.263.

On to AAGCTGGA, for which the “PBM E-score” value is -0.116. Regarding CACCATCA, the “PBM E-score” value is -0.112.

Consider AACTGGTG, for which the “PBM E-score” value was -0.182. Turning to CAATCGAA, the “PBM E-score” value is -0.0354.

Consider CAAGCCCA, for which the “PBM E-score” value is -0.295. As for AGTAGCAG, the “PBM E-score” value is -0.124. As for ATCGCGAG, the “PBM E-score” value amounted to 0.189.

As to GAAGTTAC, the “PBM E-score” value stood at 0.0236. With CCAATACA the figure was -0.127. As to GATTGTAC, the “PBM E-score” value is -0.286. Consider ACTTATAA, for which the “PBM E-score” value was determined as 0.0703. For TCTGAGAA, the “PBM E-score” value is -0.155.

Consider ATAAGTCA, for which the “PBM E-score” value was -0.0365.

Take CAAGCCCG: the “PBM E-score” value stood at 0.0363. With ACCTGTGA the figure was -0.0965. AGGTGTGG: the “PBM E-score” value was -0.0858.

As for GTCTAGGA, the “PBM E-score” value is -0.256.

With GTATTTTA, the “PBM E-score” value is -0.0775. With AGATGGCG the figure was 0.0842; with CACCATAA, -0.109. With ATCATTCG the figure was 0.14; with TACCAGCA, -0.135; with GGGAGCAC, 0.0715. ACGGTACA: the “PBM E-score” value is 0.00523. For AATGGTCG, the “PBM E-score” value stood at 0.0034. AAGGGGGT: the “PBM E-score” value was -0.405. In the case of CAGTCCTC, the “PBM E-score” value was -0.258.

Regarding ATCCCGTC, the “PBM E-score” value turned out to be 0.311.

CAAGCCGC: the “PBM E-score” value was determined as 0.0406. For ATTGCATG, the “PBM E-score” value came out at 0.0911. GCTTTGTA: the “PBM E-score” value is -0.118. Regarding CCCTGCCC, the “PBM E-score” value was -0.232.

Turning to AGTAAATG, the “PBM E-score” value stood at 0.00726. On to AACGATCC, for which the “PBM E-score” value was -0.0296.

As to ACTTTGAG, the “PBM E-score” value is -0.207. With GACGGCCA the figure was 0.00016; with ATAAAGAG, -0.245. In the case of AAACGTGT, the “PBM E-score” value was -0.0729. Turning to CACTGATG, the “PBM E-score” value was -0.206. In the case of GCGCCGTA, the “PBM E-score” value was found to be 0.251. Take TCATGAGA: the “PBM E-score” value was -0.22. With CAAAGGAG, the “PBM E-score” value is -0.0645.

As to CATGACGA, the “PBM E-score” value was 0.0365.

Turning to ATGAACAC, the “PBM E-score” value was -0.0256. With GCAAAGAA the figure was 0.0386; with AAAAATTT, 0.084. For ACGAAAAT, the “PBM E-score” value came out at 0.0123. With CACAGCCC, the “PBM E-score” value is -0.185. With GTGAAGGA, the “PBM E-score” value was -0.244. On to CAAACCGA, for which the “PBM E-score” value was -0.0979. ACGTATGG: the “PBM E-score” value was -0.234. With ACTTCAAG the figure was -0.0838; with ACTGTCTA, -0.168; with GCTTCGCA, -0.184. With AACAGGGG the figure was -0.0489; with AGGGCAAG, 0.0269. With ATACGATG, the “PBM E-score” value was determined as 0.0566. As to GAGCGAGC, the “PBM E-score” value was 0.118. With AGCCCGAT the figure was 0.0109; with TGTCCCAA, -0.0742.

For ATCGTGGG, the “PBM E-score” value came out at 0.0931.

Turning to ATAGTCTG, the “PBM E-score” value was -0.136. As to CGTATCTC, the “PBM E-score” value stood at 0.00754.

Consider AGAGGCCA, for which the “PBM E-score” value was -0.108. As to GACTCCTC, the “PBM E-score” value was -0.0434.

For AGTGCGAG, the “PBM E-score” value was -0.16. On to TCGTCTAA, for which the “PBM E-score” value is -0.134. As for CCGGGATC, the “PBM E-score” value was 0.453. ACCAGAGG: the “PBM E-score” value was -0.211. The result for ACAATAGG reads -0.235. Take AATAAAGA: the “PBM E-score” value was determined as 0.0161. Consider AATGCATA, for which the “PBM E-score” value is -0.129. With AGCGGTAA the figure was 0.045; with ATAGGCAC, -0.12. In the case of AGTTAGCA, the “PBM E-score” value was determined as 0.024. For ACTATACG, the “PBM E-score” value was -0.0219.

For TCTCCAGA, the “PBM E-score” value is -0.108.

Turning to AAGAGTGA, the “PBM E-score” value was -0.204. Consider AGAACACT, for which the “PBM E-score” value is 0.0463. With GCGTCATA the figure was 0.0182; with CTACCAAA, -0.0873; with ACCTGTGC, -0.15. As for GGTTGCTA, the “PBM E-score” value is -0.0371. For CGAGTGAG, the “PBM E-score” value was found to be 0.013. GTCTTCGA: the “PBM E-score” value is -0.198.

Values taken from the supplement of paper PMC3334620.
